Results: PubChem BioAssay AID624417 (National Center for Advancing Translational Sciences (NCATS), 2012)
Out of some 410,000 compounds screened, about 6,400 (1.6%) were called active. The shares of active, inactive and inconclusive entries below differ from those in the screen. Calls follow the shape of the dose curve; as a rule, active = well fitted inhibition curve with a large enough effect; inconclusive = small, poorly fitted or top-dose-only effect; inactive = no such curve, though single readings can be large or run the other way. Where the call is inconclusive, the potency comes from a doubtful curve fit.

Molecular target: Glucagon-like peptide 1 receptor (Homo sapiens) (UniProt P43220)
UniProt P43220, sequence (P43220 whole entry, looked up): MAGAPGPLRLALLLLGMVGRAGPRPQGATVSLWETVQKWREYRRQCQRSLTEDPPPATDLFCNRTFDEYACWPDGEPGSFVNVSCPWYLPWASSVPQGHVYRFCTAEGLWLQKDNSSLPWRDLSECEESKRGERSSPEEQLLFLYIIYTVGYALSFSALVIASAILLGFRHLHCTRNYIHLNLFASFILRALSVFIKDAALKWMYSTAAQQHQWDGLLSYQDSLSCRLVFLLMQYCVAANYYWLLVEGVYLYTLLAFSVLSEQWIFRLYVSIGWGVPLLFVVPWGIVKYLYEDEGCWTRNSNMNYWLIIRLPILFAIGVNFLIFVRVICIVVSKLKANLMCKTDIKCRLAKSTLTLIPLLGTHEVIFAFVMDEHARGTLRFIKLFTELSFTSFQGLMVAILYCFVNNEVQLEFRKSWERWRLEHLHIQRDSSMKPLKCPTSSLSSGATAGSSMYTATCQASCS
Test: qHTS of GLP-1 Receptor Inverse Agonists (Inhibition Mode); also: nearly all actives have a fitted effect of over 55% in size
Conditions: HEK293 GLP-1R CRE-luciferase, luminescence, 24 h, GLP-1R form is constitutively active; series mostly up to 38.3 µM
In short: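 Assay principle: reduced luminescence from a cAMP-responsive reporter in HEK293 cells co-expressing a constitutively active GLP-1R. Conditions: 24 hr compound incubation, 37 deg C, 5% CO2.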
Potency is read from the fitted curve at half-maximal effect; tags tell the direction and shape of the fitted curve.

Potency, inactive:
C=CCOc1cccc(C2/C(=C(/O)c3ccc(Cl)cc3)C(=O)C(=O)N2CCN2CCOCC2)c1 (stereo unspecified), Cc1ccc(NC(=O)Cn2c(=O)n(CC(=O)NCCc3ccccc3)c(=O)c3ccccc32)cc1C, O=C1NC[C@H](CCCCN2C[C@H](Cc3ccccc3)N(CC3CCCCC3)C(=O)C2=O)N(CC2CCCCC2)C1=O

Potency, inconclusive:
CN1C[C@@H]2[C@@H]3C(=O)N(Cc4ccccc4)C(=O)[C@@H]3[C@](Cc3ccccc3)(C1=O)N2C(=O)c1ccc(C(C)(C)C)cc1 8.91 µM [inhibitor, partial curve, poor fit], CC(C)CN(CC(C)C)C1=N/C(=C\c2ccco2)C(=O)N1c1ccccc1 10 µM [inhibitor, single point], O=[N+]([O-])c1cc(F)cc(F)c1Nc1cc(F)cc(F)c1 10 µM [inhibitor, single point], Cc1cc(NC(=O)NC(=O)c2ccccc2NC(=O)C(C)N)ccc1Oc1ncc(Br)cn1 (stereo unspecified) 0.355 µM [inhibitor, full curve, poor fit], O=C(Oc1c(CN2CCOCC2)cc(Cl)c2cccnc12)c1ccccc1Br 0.501 µM [inhibitor, full curve, poor fit], CCCCCC(=O)N1C[C@H](n2cc(C3CC3)nn2)[C@@H](O)C[C@@H]1c1ccc(Cl)cc1 28.2 µM [inhibitor, single point], CCc1ccc(CNC(=O)CC2C(=O)NCCN2Cc2ccccc2F)nc1 (stereo unspecified) 10 µM [inhibitor, partial curve, poor fit], CC1=NN(c2ccccc2)C(=O)/C1=C/c1c(O)n(-c2ccc(F)c(Cl)c2)[nH]c1=O 28.2 µM [inhibitor, single point], Cc1[nH]nc(N=CC2=C(O)CC(C)(C)CC2=O)c1-c1ccccc1 10 µM [inhibitor, partial curve, poor fit], Cc1n[nH]c(=O)n1-c1ccc(C(C)(C)C)cc1 8.91 µM [inhibitor, partial curve, poor fit], Cc1cc(NC(C)c2ccccc2)n2ncc(-c3ccccc3)c2n1 (stereo unspecified) 10 µM [inhibitor, partial curve, poor fit], COc1cc(OC)cc(C(=O)NCC(=O)Nc2ccc(C)c(Cl)c2)c1 14.1 µM [inhibitor, single point], O=S(=O)(Nc1ccc(C(O)(C(F)(F)F)C(F)(F)F)cc1)c1cccc2ccccc12 15.8 µM [inhibitor, partial curve, poor fit]
